Experimental data published in the supplement of paper PMC7125110.
± gives the standard error. This sample is rich in variants without activity.

B1: glmS ribozyme (parent)
chain: AUAAAAGCGCCAGAACUACAGAAAUGUAGUUGACGAGGAGGAGGUUUAUCGAAUUUUCGGCGGAUGCCUCCAAA

How the values were obtained:
Conditions in all cases: with glucosamine-6-phosphate
glucosamine-6-phosphate [1] = variants of: B1; assay: self-cleavage kobs at 640 uM GlcN6P; higher = faster cleavage; RNA array
In short: (§1)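 The measurements used barcoded ribozyme variants on sequenced MiSeq chips, transcribed in situ by E. coli RNA polymerase and tracked at 37 °C with a hybridised Cy3 probe. Glucosamine-6-phosphate, 40 μM to 10 mM in HEPES/KCl/Mg(OAc)2 buffer, was flowed in while tiles were imaged over ~14 h. Baseline-normalised signals, also normalised to non-cleaving reference variants, gave per-tile medians that were fit to one- or two-exponential decays for kobs. kcat and KM resulted from weighted Michaelis–Menten fits across concentrations.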

glucosamine-6-phosphate [2] = variants of: B1; assay: self-cleavage kobs at 2500 uM GlcN6P; higher = faster cleavage; RNA array
In short: as §1

glucosamine-6-phosphate [3] = variants of: B1; assay: self-cleavage kobs at 160 uM GlcN6P; higher = faster cleavage; RNA array
In short: as §1

glucosamine-6-phosphate [4] = variants of: B1; assay: self-cleavage kobs at 10000 uM GlcN6P; higher = faster cleavage; RNA array
In short: as §1

Variant | self-cleavage kobs at 640 uM GlcN6P (glucosamine-6-phosphate [1]) [s⁻¹] | self-cleavage kobs at 2500 uM GlcN6P (glucosamine-6-phosphate [2]) [s⁻¹] | self-cleavage kobs at 160 uM GlcN6P (glucosamine-6-phosphate [3]) [s⁻¹] | self-cleavage kobs at 10000 uM GlcN6P (glucosamine-6-phosphate [4]) [s⁻¹]
AUAAAAGCGCCAGAACUACAGAAAUGUAGUUGACGAGGAGCAGGUUUUUCGAAUUUUCGGCGGCAGCCUCGAAA [G41C A48U A64C U65A C71G] | < 1e-05 |  |  | 
AUAAAAGCGCCAGAACUACAGAAAUGUAGUUGACGAGGAAGUGGUUUUUCGAAUUUUCGGCGGAUGCCUCCAAA [G40A A42U A48U] | < 1e-05 |  |  | 
AUAAAAGCGCCAGAACUACAGAAAUGUAGUUGACGAGGUGGACAUUUAUCUAAUUUUCGGCGGAUGCCUCCAAA [A39U G43C G44A G51U] | < 1e-05 | < 1e-05 |  | 
AUAAAAGCGCCAGAACUACAGAAAUGUAGUUGACGAGGAUGAGGUUUAUGGAAUUGUCGGCGGAUUCCUCCAAA [G40U C50G U56G G66U] | < 1e-05 |  |  | 
AUAAAAGCGCCAGAACUACAGAAAUGUAGUUGACGAGGAAGAGGUUUAUCCAAUUUUCGGCGGAUGCCUCCAAA [G40A G51C] | < 1e-05 |  | < 1e-05 | < 1e-05
AUAAAAGCGCCAGAACUACAGAAAUGUAGUUGACGAGGACGAGGUUUAUUGAAUUUUCGGCGGAUGCCUCCAAA [G40C C50U] | < 1e-05 |  | < 1e-05 | < 1e-05
AUAAAAGCGCCAGAACUACAGAAAUGUAGUUGACGAGGUGGAGGUUUAUCGAAUUUUCGGCGGAUGCCGCCAAA [A39U U69G] | 4.85e-05 ± 1.5e-05 | 4.76e-05 ± 1.3e-05 |  | 7.29e-05 ± 1.5e-05
AUAAAAGCGCCAGAACUACAGAAAUGUAGUUGACGAGGAAGAGGUUUAUGGAAUUUUCGGCGGGUGCCUCCAAA [G40A C50G A64G] | < 1e-05 | < 1e-05 |  | 
AUAAAAGCGCCAGAACUACAGAAAUGUAGUUGACGAGGAGCAGGUUUAUCGAUUUUUCGGCGGUUGCCUCCAAA [G41C A53U A64U] | < 1e-05 | < 1e-05 | < 1e-05 | 
AUAAAAGCGCCAGAACUACAGAAAUGUAGUUGACGAGGAGAAGGUUUAUCGAAUUUUCGGGGGAUGCCUCCAAA [G41A C61G] | < 1e-05 | < 1e-05 | < 1e-05 | < 1e-05
AUAAAAGCGCCAGAACUACAGAAAUGUAGUUGACGAGGAAGAGGUUGAUAGAAUUUUCGGCGGAUGCCUCCAAA [G40A U47G C50A] | < 1e-05 |  |  | 
AUAAAAGCGCCAGAACUACAGAAAUGUAGUUGACGAGGAGAAGGUUUAUCAAAUUUUCGGCGGAUGCGUCCAAA [G41A G51A C68G] | < 1e-05 |  |  | 
AUAAAAGCGCCAGAACUACAGAAAUGUAGUUGACGAGGACGAGGUUUAUCGGAUUUUCGGCGGAUGCCUCCAAA [G40C A52G] | 2.38e-05 ± 8.1e-06 | 0.000102 ± 1.5e-05 |  | 0.000133 ± 1.5e-05
AUAAAAGCGCCAGAACUACAGAAAUGUAGUUGACGAGGUGUAGGUUUAUCGAAUUUUCGGCGUAUGCCUCCAAA [A39U G41U G63U] | < 1e-05 |  | < 1e-05 | 
AUAAAAGCGCCAGAACUACAGAAAUGUAGUUGACGAGGUGGAGGUUUAUCGAAUUUUCGGCAGAAGCCUCCAAA [A39U G62A U65A] | < 1e-05 | < 1e-05 |  | 
AUAAAAGCGCCAGAACUACAGAAAUGUAGUUGACGAGGAAGAGGUUUAUCGAAUUUUCGGUGGAUGCGUGGAAA [G40A C61U C68G C70G C71G] | < 1e-05 |  | < 1e-05 | 
AUAAAAGCGCCAGAACUACAGAAAUGUAGUUGACGAGGAUUAGGUUUAUCGAAUUUUCGGUGGAUGCCUCCAAA [G40U G41U C61U] | < 1e-05 | < 1e-05 | < 1e-05 | 
